From PubChem BioAssay AID2528 (National Center for Advancing Translational Sciences (NCATS), 2010) come the findings set out here.

The campaign covered roughly 350,000 compounds. About 700 (0.2%) were called active. Calls follow the shape of the dose curve; as a rule, active = well fitted inhibition curve with a large enough effect; inconclusive = small, poorly fitted or top-dose-only effect; inactive = flat fitted curve, though single readings scatter. The entries are a selection whose mix differs from that of the whole data set. More than one record can exist for a structure, and the calls need not agree.
Potency is read from the fitted curve at half-maximal effect.

This experiment concerns the target RecQ-like DNA helicase BLM (Homo sapiens) (UniProt P54132). Description: qHTS Assay for Inhibitors of Bloom's syndrome helicase (BLM). Also: nearly all actives have a fitted effect of over 35% in size.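 As to activity change, negative = inhibition: plate controls were vehicle for no effect and no enzyme for full effect.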 Particulars: recombinant BLM DNA unwinding, fluorescence dequenching; series mostly up to 56.1 µM; activity change, negative = inhibition: at the top concentration.
Sequence of UniProt P54132 (P54132 whole entry, looked up): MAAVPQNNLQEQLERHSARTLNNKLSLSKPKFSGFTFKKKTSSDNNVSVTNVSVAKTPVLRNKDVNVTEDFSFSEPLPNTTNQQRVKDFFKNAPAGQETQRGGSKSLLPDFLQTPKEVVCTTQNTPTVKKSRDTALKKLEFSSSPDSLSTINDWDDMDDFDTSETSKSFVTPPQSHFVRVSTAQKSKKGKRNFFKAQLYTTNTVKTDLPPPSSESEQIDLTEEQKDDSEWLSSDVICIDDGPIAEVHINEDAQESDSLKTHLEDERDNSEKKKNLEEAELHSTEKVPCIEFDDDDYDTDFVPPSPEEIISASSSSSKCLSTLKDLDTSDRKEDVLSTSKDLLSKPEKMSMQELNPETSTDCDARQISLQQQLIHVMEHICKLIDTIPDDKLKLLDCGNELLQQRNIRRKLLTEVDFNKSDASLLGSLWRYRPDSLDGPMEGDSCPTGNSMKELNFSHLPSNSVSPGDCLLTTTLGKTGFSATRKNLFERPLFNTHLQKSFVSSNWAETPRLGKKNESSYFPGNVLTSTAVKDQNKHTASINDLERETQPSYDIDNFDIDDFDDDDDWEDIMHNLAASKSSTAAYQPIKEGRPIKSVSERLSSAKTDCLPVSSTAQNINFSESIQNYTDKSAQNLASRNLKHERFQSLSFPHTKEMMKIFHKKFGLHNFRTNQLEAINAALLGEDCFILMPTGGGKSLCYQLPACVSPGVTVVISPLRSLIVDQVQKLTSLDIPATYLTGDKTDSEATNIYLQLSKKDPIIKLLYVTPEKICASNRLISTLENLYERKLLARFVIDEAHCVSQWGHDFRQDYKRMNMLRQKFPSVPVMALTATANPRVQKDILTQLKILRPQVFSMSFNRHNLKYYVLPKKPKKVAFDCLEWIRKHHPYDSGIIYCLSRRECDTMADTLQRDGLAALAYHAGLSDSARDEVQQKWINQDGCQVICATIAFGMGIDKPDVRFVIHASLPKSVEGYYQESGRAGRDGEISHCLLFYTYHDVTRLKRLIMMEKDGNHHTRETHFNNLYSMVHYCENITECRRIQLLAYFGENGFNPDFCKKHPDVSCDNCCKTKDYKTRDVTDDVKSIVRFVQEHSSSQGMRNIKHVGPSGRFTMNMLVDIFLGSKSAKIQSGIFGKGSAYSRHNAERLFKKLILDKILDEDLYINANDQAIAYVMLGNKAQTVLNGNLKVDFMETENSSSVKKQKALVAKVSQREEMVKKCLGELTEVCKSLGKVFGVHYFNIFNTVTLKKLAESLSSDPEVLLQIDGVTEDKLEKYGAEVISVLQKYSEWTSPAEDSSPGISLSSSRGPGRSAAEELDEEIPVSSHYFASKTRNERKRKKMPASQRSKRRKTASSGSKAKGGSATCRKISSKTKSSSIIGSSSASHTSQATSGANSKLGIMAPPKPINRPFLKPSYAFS
As for `CC(C)(C)NCC(O)c1cc(O)cc(O)c1` (stereo not given), the Potency result is “inactive”.
Take `CC[C@@]1(O)CC2CN(CCc3c([nH]c4ccccc34)[C@](C(=O)OC)(c3cc4c(cc3OC)N(C)C3[C@@](O)(C(=O)OC)C(OC(C)=O)[C@]5(CC)C=CCN6CC[C@@]43C65)C2)C1` (stereo not given in full): the “activity change, negative = inhibition” value is inactive: -14.2%.
On to `CC/C(=C(\c1ccccc1)c1ccc(OCCN(C)C)cc1)c1ccccc1`, for which the Potency entry was “inactive”.
On to `O=C(O)c1cccnc1C(=O)O`, for which the Potency entry was “inactive”.
The same measure, in the same setting: the result for `CN1CCC[C@@H]1CCO[C@](C)(c1ccccc1)c1ccc(Cl)cc1` reads “inactive”; that for `N#Cc1c2nc3ccccc3nc2n2cc(NC(=O)c3ccc(F)cc3)ccc12`, active: 12.6 µM.
As for `COCCc1ccc(OCC(O)CNC(C)C)cc1` (stereo not given), the Potency entry was “inactive”.
On to `COc1ccc(N2Cc3cccc(C(=O)O)c3C2=O)cc1`, for which the Potency was active: 15.8 µM.
For `CCC(C)C(=O)OC1CCC=C2C=CC(C)C(CCC3CC(O)CC(=O)O3)[C@@H]21` (stereo not given in full), the “activity change, negative = inhibition” value is inactive: -5.58%.
With `Fc1cc(F)c2nc(Nc3nc4cc5c(cc4s3)OCO5)sc2c1`, the Potency was active: 10 µM.
On to `O=C(O)C1(C(=O)O)CCC1.[NH2-].[NH2-].[Pt+2]`, for which the “activity change, negative = inhibition” value is inactive: -5.86%.
On to `CCCSC1=N/C(=C\C=C\c2ccco2)C(=O)S1`, for which the Potency is active: 20 µM.
Take `C=C[C@@]1(C)CC(=O)[C@@]2(O)[C@@]3(C)[C@@H](O)CCC(C)(C)[C@@H]3[C@H](O)[C@H](OC(C)=O)[C@@]2(C)O1`: the “activity change, negative = inhibition” value was inactive: 3.63%.
`Nc1ncnc2c1ncn2C1CCCO1` (stereo not given): the “activity change, negative = inhibition” value was inactive: -1.67%.
On the same count and under the same terms, the result for `N[C@@H](Cc1ccc(O)c(I)c1)C(=O)O` reads inactive: 1.78%; that for `NC(Cc1c[nH]c2ccccc12)C(=O)O` (stereo not given), inactive: 2.5%; that for `Nc1nc(Nc2ccccc2)nc2c1ncn2[C@@H]1O[C@@H](CO)[C@H](O)[C@H]1O`, inactive: -4.28%.
For `N[C@H](C(=O)N[C@@H]1C(=O)N2C(C(=O)O)=C(Cl)CS[C@@H]12)c1ccccc1`, the Potency entry is “inactive”.
For `CN(C)c1ccc(C(=C2C=CC(=[N+](C)C)C=C2)c2ccc(N(C)C)cc2)cc1`, the “activity change, negative = inhibition” value was inactive: -29.6%.
For the compound `Oc1ccc(NCc2ccccc2OCc2ccccc2)cc1`, the “activity change, negative = inhibition” value was inactive: -11%.
As to `CC(=O)OCC(=O)[C@@]1(O)CC[C@H]2[C@@H]3CCC4=CC(=O)CC[C@]4(C)[C@@H]3C(=O)C[C@@]21C`, the “activity change, negative = inhibition” value is inactive: 4.86%.
Regarding `CC(C)(C)c1ccc(C(O)CCCN2CCC(C(O)(c3ccccc3)c3ccccc3)CC2)cc1` (stereo not given), the Potency result was “inactive”.
`CCCN1C[C@H](CSC)C[C@H]2c3cccc4[nH]cc(c34)C[C@@H]21`: the “activity change, negative = inhibition” value is inactive: 0.436% [at 21.4 µM].
As to `Nc1c(N=Nc2ccc(-c3ccc(N=Nc4cc(S(=O)(=O)O)c5ccccc5c4N)cc3)cc2)cc(S(=O)(=O)O)c2ccccc12`, the Potency is active: 3.98 µM.
Take `CCCCNc1c(C(=O)OCC)c(C)nc2c1cnn2CC`: the Potency entry was “inactive”.
As for `COC1=C(N)C(=O)c2nc(-c3nc(C(=O)O)c(C)c(-c4ccc(OC)c(OC)c4O)c3N)ccc2C1=O`, the Potency was active: 3.55 µM.
In the case of `COCCOC(=O)C1=C(C)NC(C)=C(C(=O)OC(C)C)[C@H]1c1cccc([N+](=O)[O-])c1`, the “activity change, negative = inhibition” value was inactive: -6.31% [at 21.4 µM].
For `CC[N+](CC)(CC)CC(=O)Nc1c(C)cccc1C`, the Potency result is “inactive”.
With `CC[C@H](C)[C@H]1O[C@]2(CC[C@@H]1C)C[C@@H]1C[C@@H](C/C=C(\C)[C@H](O[C@@H]3C[C@H](OC)[C@H](O[C@@H]4C[C@H](OC)[C@@H](O)[C@H](C)O4)[C@H](C)O3)[C@@H](C)/C=C/C=C3\CO[C@@H]4[C@H](O)C(C)=C[C@@H](C(=O)O1)[C@]34O)O2`, the “activity change, negative = inhibition” value is inactive: -2.21%.
Regarding `NC(N)=Nc1nc(CSCC/C(N)=N/S(N)(=O)=O)cs1`, the Potency result was “inactive”.
`CC1=C(/C=C/C(C)=C/C=C/C(C)=C\C(=O)O)C(C)(C)CCC1`: the Potency entry was “inactive”.
For the compound `CCCCN(C)C1=CC2=CC(=C(C#N)C#N)CCC2CC1` (stereo not given), the Potency was active: 12.6 µM.
For `O=S(=O)(O)O`, the “activity change, negative = inhibition” value is inactive: -1.47%.
As for `C/C(=C\c1ccc(C(=O)O)cc1)c1ccc2c(c1)C(C)(C)CCC2(C)C`, the Potency entry was “inactive”.
For the compound `C[C@]12C=CC(=O)C=C1CC[C@@H]1[C@H]3C[C@@H](O)[C@](O)(C(=O)CO)[C@@]3(C)C[C@H](O)[C@]12F`, the “activity change, negative = inhibition” value is inactive: 2.94% [at 21.4 µM].
In the case of `Cn1nc(-c2ccccn2)nc2c(=O)n(C)c(=O)nc1-2`, the Potency is active: 1 µM.
As to `CN(Cc1cnc2nc(N)nc(N)c2n1)c1ccc(C(=O)N[C@@H](CCC(=O)O)C(=O)O)cc1`, the Potency entry is “inactive”.
With `CCOc1ccc2nc3cc(N)ccc3c(N)c2c1`, the “activity change, negative = inhibition” value was inactive: -22.7%.
Regarding `CO/N=C(/C(=O)NC1C(=O)N2C(C(=O)O)=C(CSc3nc(=O)c(O)nn3C)CSC12)c1csc(N)n1` (stereo not given), the Potency result was “inactive”.
For the compound `COc1cc2c(CCNC(C)=O)c[nH]c2cc1Cl`, the “activity change, negative = inhibition” value was inactive: -3.77%.
With `O=C(O)C1=CCCN(CCON=C(c2ccccc2)c2ccccc2)C1`, the “activity change, negative = inhibition” value was inactive: 2.2%.
Consider `O=C(COC(=O)c1c2c(nc3ccccc13)/C(=C/c1ccco1)CC2)NC1CCCC1`, for which the Potency is active: 8.91 µM.
On to `O=C1NC(=Nc2ccc3ccccc3c2)S/C1=C/c1ccco1`, for which the Potency was active: 17.8 µM.
With `N#C/C(=C\c1ccc(O)c(O)c1)C(=O)NCc1ccccc1`, the “activity change, negative = inhibition” value was inactive: -16.3%.
Consider `C[C@@]12CCC3c4ccc(O)cc4CCC3C1CCC2O` (stereo not given in full), for which the “activity change, negative = inhibition” value is inactive: 3.1%.
As to `CC(N=C(NC#N)Nc1ccncc1)C(C)(C)C` (stereo not given), the Potency entry is “inactive”.
On to `O=C1C=C(NCCN2CCOCC2)C(=O)c2cnccc21`, for which the Potency is active: 25.1 µM.
On the same count and under the same terms, the result for `Cc1ccc(-c2nn(-c3ccccc3)cc2/C=C2\SC(=S)N(CCCCCC(=O)O)C2=O)o1` reads active: 28.2 µM; that for `CC1=C(/C=C/C(C)=C\C=C\C(C)=C\C(=O)O)C(C)(C)CCC1`, “inactive”.
For `O=C(c1ccccc1)c1ccc2n1CC[C@H]2C(=O)O`, the “activity change, negative = inhibition” value was inactive: -2.27% [at 21.4 µM].
On to `O=C(CSc1ccc(-c2ccco2)nn1)c1ccccc1`, for which the Potency is active: 25.1 µM.
For the compound `Brc1ccc2c(c1)OCCOCCOc1cc(Br)ccc1OCCOCCOCCO2`, the Potency was active: 15.8 µM.
Consider `Cc1ccc2nc(/C(C#N)=C/c3ccc(-c4cccc([N+](=O)[O-])c4)o3)[nH]c2c1`, for which the Potency is active: 22.4 µM.
Turning to `CC(=O)O[C@@H](C)C[N+](C)(C)C`, the “activity change, negative = inhibition” value was inactive: 0.857% [at 21.4 µM].
`CCCCCCCCCCCCC/C=C/[C@@H](O)[C@@H](N)CO`: the “activity change, negative = inhibition” value was inactive: -1.45%.
Turning to `O=C(O)CP(=O)(O)O`, the “activity change, negative = inhibition” value was inactive: -6.1%.
Same read-out and setting: the result for `Cn1ccc2cc3c(cc21)CCN3C(=O)Nc1cccnc1` reads inactive: -22.1%; that for `Cc1cn([C@H]2C[C@H](N=[N+]=[N-])[C@H](CO)O2)c(=O)[nH]c1=O`, inactive: 2.43%; that for `NCCNC(=O)c1ccc(Cl)cc1`, inactive: 3.64%.
As for `COc1cc(/C=C2\CCc3c2nc2ccccc2c3C(=O)O)cc(OC)c1OC`, the Potency is active: 14.1 µM.
Same read-out and setting: the result for `O=C(CCl)Nc1ccccc1Sc1ccccc1` reads active: 8.91 µM.
As to `NS(=O)(=O)c1cccc2c1c([N+](=O)[O-])cc1[nH]c(=O)c(=O)[nH]c12`, the Potency result is “inactive”.
Consider `O=C(c1ccccc1)c1ccc2n1CCC2C(=O)O` (stereo not given), for which the Potency entry is “inactive”.
`O=[N+]([O-])c1cccc2c[nH]nc12`: the “activity change, negative = inhibition” value was inactive: -27.2%.
`O=C1NC(=O)C(c2ccccc2)(c2ccccc2)N1`: the Potency result was “inactive”.
`N#Cc1sc2nc(-c3ccccc3)cc(-c3ccco3)c2c1N`: the Potency is active: 3.98 µM.
For `CCCOc1ccccc1-c1nc2n[nH]nc2c(=O)[nH]1`, the Potency entry is “inactive”.
On the same count and under the same terms, the result for `Cc1oc(-c2ccc(Cl)cc2)cc1-c1nn2c(-c3ccoc3C)nnc2s1` reads active: 10 µM; that for `C/C=C\C=C/C(=O)Nc1cccc(C2=NOC3(C2)C[C@@H](C(N)=O)N(C(=O)/C=C/C=C\C)C3)c1` (stereo not given in full), active: 10 µM.
Regarding `C[C@]12CCC3c4ccc(O)cc4CCC3C1CCC2=O` (stereo not given in full), the “activity change, negative = inhibition” value is inactive: -1.66%.
With `COc1cccc(-n2c(SCc3cc(=O)oc4cc(O)c(O)cc34)nc3ccccc3c2=O)c1`, the Potency is active: 10 µM.
Turning to `COc1cc(OC)c(OC)cc1/C=N/Nc1ncnc2c1[nH]c1ccccc12`, the Potency was active: 22.4 µM.
For the compound `CCN1CCC[C@@H]1CNC(=O)c1cc(S(N)(=O)=O)ccc1OC`, the “activity change, negative = inhibition” value is inactive: -1.79%.
Regarding `CCc1nn2c(=O)cc(COc3ccc(/C=C4\C(=N)N5N=C(C)SC5=NC4=O)cc3)nc2s1`, the Potency was active: 12.6 µM.
Consider `Cc1cc(C)n(Cc2ccc(C(=O)N/N=C/c3ccc(-c4ccc([N+](=O)[O-])cc4)o3)o2)n1`, for which the Potency is active: 15.8 µM.
Take `CC#C[C@]1(O)CC[C@H]2[C@@H]3CCC4=CC(=O)CCC4=C3[C@@H](c3ccc(N(C)C)cc3)C[C@@]21C`: the Potency result was “inactive”.
Still for that read-out and setting: the result for `COc1ccc(Cl)cc1C(=O)NCCc1ccc(S(=O)(=O)NC(=O)NC2CCCCC2)cc1` reads “inactive”.
With `O/C=c1\ccc2cccc3nc(C(F)(F)F)nc1c23`, the Potency was active: 14.1 µM.
In the case of `O=C(CSc1nnc(-c2ccco2)c(-c2ccco2)n1)Nc1ccccc1`, the Potency is active: 14.1 µM.
Still for that read-out and setting: the result for `O=C(COc1ccc([N+](=O)[O-])cc1)Nc1nnc(-c2cccnc2)s1` reads active: 15.8 µM.
Take `CCCCn1c(NC(=O)c2ccccc2)c(C#N)c2nc3ccccc3nc21`: the Potency was active: 1.58 µM.
As for `O=C(O)c1ccc(COc2ccccc2/C=C2/NC(=O)N(c3cccc(Cl)c3)C2=O)cc1`, the Potency was active: 20 µM.
Take `C1CCC(N=C(NC23CC4CC(CC(C4)C2)C3)N2CCOCC2)CC1`: the “activity change, negative = inhibition” value is inactive: -1.16%.
`COC(=O)[C@H]1[C@@H]2C[C@@H]3c4[nH]c5ccccc5c4CCN3C[C@H]2CC[C@H]1O`: the “activity change, negative = inhibition” value is inactive: 2.05%.
In the case of `CC(=O)S[C@H]1CC2=CC(=O)CC[C@@]2(C)[C@H]2CC[C@@]3(C)[C@H](CC[C@]34CCC(=O)O4)[C@@H]12`, the “activity change, negative = inhibition” value is inactive: -10.6% [at 21.4 µM].
Take `O=C1CC[C@H](N2C(=O)c3ccccc3C2=O)C(=O)N1`: the Potency entry was “inactive”.
Take `Cc1ccccc1Nc1cc2ccccc2c(=O)[nH]1`: the Potency is active: 28.2 µM.
For `CNCC(O)c1ccc(O)c(O)c1` (stereo not given), the “activity change, negative = inhibition” value is inactive: -4.71%.
Still for that read-out and setting: the result for `CC(=O)O[C@@]1(C(C)=O)CCC2C3C=C(Cl)C4=CC(=O)C5CC5[C@@]4(C)C3CC[C@]21C` (stereo not given in full) reads inactive: -15.1%.
On to `O=C1S/C(=C\C=C\c2ccco2)C(=O)N1c1ccc(O)cc1`, for which the Potency was active: 25.1 µM.
Turning to `CCCC1OC2CC3C4CCC5=CC(=O)C=CC5(C)C4C(O)CC3(C)C2(C(=O)CO)O1` (stereo not given), the “activity change, negative = inhibition” value is inactive: 2.24%.
With `O=C(NC1CC1)c1cc(-c2ccco2)nc2ccccc12`, the Potency was active: 14.1 µM.
With `CC(C)NCC(O)COc1ccc(CC(N)=O)cc1` (stereo not given), the Potency result was “inactive”.
Same read-out and setting: the result for `Nc1c(C(=O)NCC2CCCO2)sc2nc3c(c(-c4ccco4)c12)CC/C3=C\c1ccco1` (stereo not given) reads active: 5.01 µM.
Turning to `Oc1cc2c(cc1O)C(c1ccccc1)CNCC2` (stereo not given), the “activity change, negative = inhibition” value is inactive: -16%.
